Reference: the RNAGym collection of RNA variant scans (doi:10.7554/elife.90254)
The source gives no read counts; variants with many changes may rest on few reads.

B1: LINE1-mini (parent)
chain: GGCAGAGCUCAACACAGCGUGGCAAAGUGGCUGUGGCUAGACUGCC

Variants of: B1
Experiment: self-cleavage, relative activity (ratio to wild type); higher = more cleavage; in vitro, sequencing; the parent is a self-cleaving ribozyme
GGCAGAGCUCAACACAGCAUGGCAAAGUGGCUGUAGAUAGACUGCC [G19A G35A C37A] gave a self-cleavage of 0.14.
Work on GGCAGAGCUCAACACAGCAUGGCAAAGUGGUUGUGGGGAGACUGCC [G19A C31U C37G U38G] yielded a self-cleavage of 0.01.
For GGCAGAGCUCAACACAGCAUGGCAAAGUGGCUGUGGGUAGACUUCC [G19A C37G G44U], the self-cleavage was 0.03.
For GGCAGAGCUCAACACAGCAUGGCAAAUUGGCUGUGGCUAGUCUGCC [G19A G27U A41U], the self-cleavage was 0.41.
In the case of GGCAGAGCUCAACACAGCCUGGCAAAGUGGCUGUGGGUACACUGCC [G19C C37G G40C], the self-cleavage is reported as 0.05.
Work on GGCAGAGCUCAACACAGCCUGGCAAAGUGUCUGUGGCUAGACUGUC [G19C G30U C45U] yielded a self-cleavage of 0.12.
Variant GGCAGAGCUCAACACAGCCUGGCAAAGUGGCUGUUGCUAGGCUGCC [G19C G35U A41G] has a self-cleavage of 0.02.
Variant GGCAGAGCUCAACACAGCCUGGCAAAAUGUCUGGGGCUAGACUGCC [G19C G27A G30U U34G] has a self-cleavage of 0.05.
In the case of GGCAGAGCUCAACACAGCUUGGCAGAGGGGCUGUGGCUAGAAUGCC [G19U A25G U28G C42A], the self-cleavage is reported as 0.05.
Work on GGCAGAGCUCAACACAGCAUGGCAAAGUGACUGCGCCUAGACUGCC [G19A G30A U34C G36C] yielded a self-cleavage of 0.07.
For GGCAGAGCUCAACACAGCAUGGCAAAGAGGCUGUGGCUAGAGUGCC [G19A U28A C42G], the self-cleavage was 0.02.
GGCAGAGCUCAACACAGCUUGGCGAAGUGGGUGUGGCUAGACUGCC [G19U A24G C31G] gave a self-cleavage of 0.1.
In the case of GGCAGAGCUCAACACAGCAAUGCAAAGUGGCUAUGGCUACACUGCC [G19A U20A G21U G33A G40C], the self-cleavage is reported as 0.04.
With GGCAGAGCUCAACACAGCACGGCAAAGUGGCUGUGGGUAGACUGCC [G19A U20C C37G] the self-cleavage was 0.36.
GGCAGAGCUCAACACAGCCUGGCAAAGUGACUGUGGCUGGACUGCA [G19C G30A A39G C46A] showed a self-cleavage of 0.11.
Variant GGCAGAGCUCAACACAGCAUGGCAAAGUAGCUGGGGCUACACAGCC [G19A G29A U34G G40C U43A] has a self-cleavage of 0.03.
With GGCAGAGCUCAACACAGCUUGGCAAGGUGGCUGGGGCUAGACUUCC [G19U A26G U34G G44U] the self-cleavage was 0.06.
With GGCAGAGCUCAACACAGCCAGGCAAAGUCGCUGUGGGUAGACUGCC [G19C U20A G29C C37G] the self-cleavage was 0.16.
Work on GGCAGAGCUCAACACAGCAUGGCAAAGUGGCUGUGGUUAGACCGUC [G19A C37U U43C C45U] yielded a self-cleavage of 0.07.
GGCAGAGCUCAACACAGCCAGACAAAGUGAAUGCGGCAUGACUUCC [G19C U20A G22A G30A C31A U34C U38A A39U G44U] showed a self-cleavage of 0.03.
In the case of GGCAGAGCUCAACACAGCAUGGCAAAAUGGCUGUGGCUAGACUGCU [G19A G27A C46U], the self-cleavage is reported as 1.92.
In the case of GGCAGAGCUCAACACAGCUUGGCAGAGUGGCUGUGGCUAGACUGCA [G19U A25G C46A], the self-cleavage is reported as 0.55.
In the case of GGCAGAGCUCAACACAGCAUGGCAAAGUCGGUGUGGCAAGUCUGCC [G19A G29C C31G U38A A41U], the self-cleavage is reported as 0.06.
Work on GGCAGAGCUCAACACAGCAUGACAAAGUGGAUCUGGCUAGACUGCC [G19A G22A C31A G33C] yielded a self-cleavage of 0.02.
GGCAGAGCUCAACACAGCAUGUCAAAAUGGCCGUGGCUAGACUGCC [G19A G22U G27A U32C] showed a self-cleavage of 0.52.
Variant GGCAGAGCUCAACACAGCCUGGCAAACUGGCUGUGGGUAGACUGCC [G19C G27C C37G] has a self-cleavage of 0.02.
In the case of GGCAGAGCUCAACACAGCCAGGCAAAGUGGCUGUUACUAGACUGCC [G19C U20A G35U G36A], the self-cleavage is reported as 0.04.
With GGCAGAGCUCAACACAGCCUGGCGUAGUGGCUGUGGCUAGACUGUC [G19C A24G A25U C45U] the self-cleavage was 0.29.
With GGCAGAGCUCAACACAGCCUGGCAAAGUGGGUGUGGUUAGACUGCC [G19C C31G C37U] the self-cleavage was 0.05.
For GGCAGAGCUCAACACAGCAUGUCAAAGUAUCUGUGGCUAGACUGCC [G19A G22U G29A G30U], the self-cleavage was 1.92.
GGCAGAGCUCAACACAGCAUGGCAAAGAGGCUUUGGCUAGACUGCC [G19A U28A G33U] gave a self-cleavage of 0.11.
GGCAGAGCUCAACACAGCAUGGCAAAGUGGCUGCGGCUAGAGUGCC [G19A U34C C42G] showed a self-cleavage of 0.05.
In the case of GGCAGAGCUCAACACAGCAUGGCAAAGUGGCUGCGGCUAGAUUGCC [G19A U34C C42U], the self-cleavage is reported as 0.05.
Work on GGCAGAGCUCAACACAGCCUCGCAAAGUGGCUGUGACUAGAGUGCC [G19C G21C G36A C42G] yielded a self-cleavage of 0.01.
For GGCAGAGCUCAACACAGCAUGGCAAACUGGCUGUGGGUAGCCUGCC [G19A G27C C37G A41C], the self-cleavage was 0.03.
GGCAGAGCUCAACACAGCCUGACAAAGUGGCUGUGGCUAGACUACC [G19C G22A G44A] showed a self-cleavage of 0.14.
In the case of GGCAGAGCUCAACACAGCCUGGCAAAGUGGCUGUGGCUAUACUGAC [G19C G40U C45A], the self-cleavage is reported as 0.03.
GGCAGAGCUCAACACAGCCUGGCAAAGCGGCUGUGGCUAGAUUGCC [G19C U28C C42U] showed a self-cleavage of 1.49.
In the case of GGCAGAGCUCAACACAGCCUGGCAAAGUGGCUGUGGGUAGACUUCC [G19C C37G G44U], the self-cleavage is reported as 0.01.
Work on GGCAGAGCUCAACACAGCCUGGCACAGUGUCUGUGGCUAGACUGCC [G19C A25C G30U] yielded a self-cleavage of 0.48.
GGCAGAGCUCAACACAGCCUAGAAAUGUGGCUGUGGCUAGACUGCC [G19C G21A C23A A26U] showed a self-cleavage of 0.31.
Work on GGCAGAGCUCAACACAGCAUGGCAAAGUUGCUGUGGCUAGACGGCC [G19A G29U U43G] yielded a self-cleavage of 0.
In the case of GGCAGAGCUCAACACAGCCUGGAAUAGUGGCUGUGGCUAGACUGCC [G19C C23A A25U], the self-cleavage is reported as 0.1.
GGCAGAGCUCAACACAGCAUGAAAAAGCGGCUGUGGCUAGACUGUC [G19A G22A C23A U28C C45U] gave a self-cleavage of 0.91.
Work on GGCAGAGCUCAACACAGCCUGGGAAAGUGGCUGUGAAUAGACUGCC [G19C C23G G36A C37A] yielded a self-cleavage of 0.01.
GGCAGAGCUCAACACAGCUUGGCGAAGUGGCUGUGGCUAGUCUGCC [G19U A24G A41U] gave a self-cleavage of 0.03.
In the case of GGCAGAGCUCAACACAGCUUGGCUAAGUGGCUCUGGCUAGACUGCC [G19U A24U G33C], the self-cleavage is reported as 0.01.
Variant GGCAGAGCUCAACACAGCCUGGCAAAAUCGCUGUGGCUAGACUGCC [G19C G27A G29C] has a self-cleavage of 0.25.
With GGCAGAGCUCAACACAGCCUGGCAUAGUGGGUGUGGCUAGACUGCU [G19C A25U C31G C46U] the self-cleavage was 0.55.
In the case of GGCAGAGCUCAACACAGCCUGGCAUAGUGACUGUGGCUAGAGUGCC [G19C A25U G30A C42G], the self-cleavage is reported as 0.05.
In the case of GGCAGAGCUCAACACAGCCUUGCAAACUGGCUGUGGAUAGACUGCC [G19C G21U G27C C37A], the self-cleavage is reported as 0.41.
With GGCAGAGCUCAACACAGCAUUGGAGAGUGGCUGUGGCUAGACUGCC [G19A G21U C23G A25G] the self-cleavage was 0.32.
In the case of GGCAGAGCUCAACACAGCAUGGCAAAGAGGCAGUGGCUAGACUGCC [G19A U28A U32A], the self-cleavage is reported as 0.31.
With GGCAGAGCUCAACACAGCAUGCCAAAGUGGCUGUGGUUAGACUGCC [G19A G22C C37U] the self-cleavage was 0.02.
Variant GGCAGAGCUCAACACAGCCUGGCGAACUGGCUGCGGCUGGACUGCC [G19C A24G G27C U34C A39G] has a self-cleavage of 0.01.
For GGCAGAGCUCAACACAGCAUGGCAAAGUGGCUGUGGUUAAACUGCC [G19A C37U G40A], the self-cleavage was 0.36.
